Results published in the supplement of paper PMC4166925.
± gives the standard deviation of the averaged measurements. In all, about 33,000 sequences were measured (“E-score (dimensionless, -0.5 to 0.5)”: median about -0.046, highest 2% from about 0.36 on). This is one part of the list.

The sequences below were run on T1, SpTbr T-box DNA-binding domain (GST fusion) (assay: PBM E-score of 8-mer (E-score (dimensionless, -0.5 to 0.5)); Tbr is Tbrain of the sea star Patiria miniata (Pm) or the sea urchin Strongylocentrotus purpuratus (Sp); higher = stronger binding preference; most listed sequences are background and not binding sites). Details: the construct has about 5 more residues each side.
T1 sequence: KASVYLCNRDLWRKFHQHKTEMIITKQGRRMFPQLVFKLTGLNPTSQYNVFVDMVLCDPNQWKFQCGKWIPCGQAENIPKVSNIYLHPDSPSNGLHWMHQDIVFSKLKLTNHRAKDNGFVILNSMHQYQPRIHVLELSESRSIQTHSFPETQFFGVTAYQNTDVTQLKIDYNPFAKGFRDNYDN
In short: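 Primer extension turned Universal Agilent oligonucleotide arrays double-stranded. They were incubated with 200 nM protein in PBS (pH 7.5); the protein was a GST-fused Tbr T-box DNA-binding domain expressed in BL21 E. coli at 20 °C and purified on glutathione. Every ungapped 8-mer was scored from the scanned, quantified probe intensities, and the Universal PBM Analysis Suite gave each an enrichment E-score averaged over duplicate arrays.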

Sequence | PBM E-score of 8-mer
CACGGTTA | -0.0116 ± 0.056
CCATAGAA | -0.0852 ± 0.036
CAAATTCC | 0.00189 ± 0.041
AACATCAC | 0.208 ± 0.023
GGAATCGA | -0.00645 ± 0.086
GTATCACA | 0.213 ± 0.0034
TTACAGAA | -0.0978 ± 0.033
ATACACAC | 0.2321 ± 0.00076
AGTCGTGG | 0.0665 ± 0.034
GAACAAAC | -0.0729 ± 0.0068
ACAGTATG | 0.1665 ± 0.00065
AGTCCACA | 0.233 ± 0.043
CACTTCCA | 0.284 ± 0.0076
AGCGCCTC | 0.268 ± 0.0083
CGGGTTCA | 0.0792 ± 0.0091
CATATAAC | -0.109 ± 0.055
ACCCCACT | 0.0175 ± 0.038
AAATGTAT | -0.147 ± 0.011
GGTCTTCA | 0.0227 ± 0.057
CAAGCCGA | -0.136 ± 0.019
AACATTAT | -0.103 ± 0.058
CAGATGTA | -0.0627 ± 0.057
AAGCACAG | -0.157 ± 0.05
AAAGCAAC | 0.0509 ± 0.06
AACAGTCG | 0.142 ± 0.021

Sequence | PBM E-score of 8-mer
GGGGATAA | -0.174 ± 0.0073
CCCTTCGC | 0.157 ± 0.033
ACTCCGGG | -0.0806 ± 0.049
TCTAGCCA | -0.0859 ± 0.0019
GCCAAGTA | -0.0662 ± 0.052
CGCTACTA | 0.0971 ± 0.009
ACATTGCG | 0.028 ± 0.072
AACACCCA | 0.293 ± 0.035
GCGCTGTA | 0.206 ± 0.014
GCACGAAA | -0.0282 ± 0.018
ATTCGTGA | 0.2108 ± 0.0015
GAGTGCCA | 0.20475 ± 0.00018
ATAGAGAT | -0.108 ± 0.066
GCAGCCGA | -0.0632 ± 0.019
ATCATATC | -0.086 ± 0.0052
GACAATGA | 0.176 ± 0.0013
ATCAACGA | 0.051 ± 0.018
CAGGACAC | 0.191 ± 0.037
TATAATCA | -0.107 ± 0.065
AACAACCG | -0.0688 ± 0.056
AAATATAT | -0.192 ± 0.054
TGCTGACA | 0.231 ± 0.023
CGCAAAAA | 0.15 ± 0.012
CAAGAATC | -0.115 ± 0.11
CCCTGCGG | -0.189 ± 0.04

Sequence | PBM E-score of 8-mer
AACACTCT | 0.355 ± 0.011
ACAATGTC | 0.0343 ± 0.011
AAAAGTGG | 0.118 ± 0.11
CCAAATGC | -0.107 ± 0.051
AGTACTAT | -0.142 ± 0.062
ATTACTCA | 0.109 ± 0.043
ACTATGCC | -0.0459 ± 0.048
TCGGGTCA | 0.00268 ± 0.096
CGCTATAA | 0.0809 ± 0.056
ATCCGCCG | -0.126 ± 0.097
AGTTGTTA | 0.369 ± 0.04
AAGCGTGT | 0.288 ± 0.012
AGCCAGTG | -0.21 ± 0.011
AGGAGCAT | -0.105 ± 0.046
AGTTAACC | -0.158 ± 0.0076
CGAGACGC | -0.103 ± 0.1
AATACATT | -0.143 ± 0.02
CGCATAGA | -0.0202 ± 0.12
AAACGCTT | -0.0215 ± 0.0094
TCTTAACA | 0.214 ± 0.041
CACTTGAA | 0.0803 ± 0.017
CCCGATGA | -0.0376 ± 0.018
TATGGCGA | 0.0259 ± 0.038
ATAGAGAA | -0.203 ± 0.013
CAGTCAAA | -0.0968 ± 0.02

Sequence | PBM E-score of 8-mer
ACAGGCAC | 0.0398 ± 0.048
CGTGACTA | 0.0881 ± 0.032
CTAATCGA | -0.213 ± 0.025
AATACCGA | -0.119 ± 0.011
ACTCTGAA | -0.183 ± 0.0055
AGATAAGA | -0.137 ± 0.015
CTTACAGA | 0.0336 ± 0.094
AGCGCAGC | -0.0867 ± 0.019
CAATGCAG | -0.25 ± 0.013
GGCGTTAC | 0.326 ± 0.018
ACCTTAGG | -0.0722 ± 0.023
ACGTAGGC | -0.0247 ± 0.067
AGATACCG | -0.142 ± 0.046
CTTACATA | -0.196 ± 0.042
CAATCGTC | 0.0322 ± 0.0016
ACGAAGGG | -0.227 ± 0.07
CCGTCACA | 0.306 ± 0.039
TACTTTCA | 0.0949 ± 0.061
AACCTATC | -0.225 ± 0.0065
AAAGCTCT | -0.125 ± 0.048
CTTGGCTC | -0.22 ± 0.061
AGCGGAGG | -0.17 ± 0.0084
CCCCCTTA | -0.299 ± 0.056
AGCTTGAC | -0.237 ± 0.03
GAATCACA | 0.259 ± 0.0088

Sequence | PBM E-score of 8-mer
CCCTACTC | -0.0057 ± 0.027
AATCTACA | -0.0319 ± 0.069
AGTGACAC | 0.435 ± 0.0092
CAGACGAG | -0.296 ± 0.057
CGCTTAAC | 0.0996 ± 0.0031
CCGTATCG | 0.0597 ± 0.01
CCGCGCAG | 0.0561 ± 0.029
GGGCCACA | 0.121 ± 0.046
CCGTCGTC | 0.0752 ± 0.061
ATTCGCGC | 0.387 ± 0.012
GACCGATC | -0.0366 ± 0.053
ATTGAATG | -0.229 ± 0.048
AAGGTCCA | -0.186 ± 0.012
GTGTTGAA | 0.361 ± 0.017
AGAAGCCC | -0.186 ± 0.019
CATAGGTC | -0.238 ± 0.0045
GGGCCCCA | -0.115 ± 0.049
CAAGTACG | -0.0184 ± 0.033
AGTCCTCA | -0.135 ± 0.014
ATCCTGCA | -0.193 ± 0.028
CGCAGACG | -0.0251 ± 0.095
GGTGCTCA | -0.00137 ± 0.08
CGGACCGC | -0.0422 ± 0.0036
AATCTAGA | 0.183 ± 0.042
AGAAGCAC | -0.0907 ± 0.041

Sequence | PBM E-score of 8-mer
ATCTAACG | 0.0264 ± 0.053
AGTAGGAC | -0.185 ± 0.038
TGCCACCA | 0.256 ± 0.03
ACGTTAAG | -0.234 ± 0.11
ACTGATAG | -0.0143 ± 0.077
ACCTAAGC | -0.117 ± 0.015
CGGATACC | -0.173 ± 0.0035
AGATCAGA | -0.33 ± 0.011
CGTTCTCC | -0.118 ± 0.067
ACGTCCAC | -0.0232 ± 0.067
GAACCAAA | -0.101 ± 0.011
AGCATAAA | -0.0913 ± 0.029
AAAGGTAT | -0.0219 ± 0.0083
AGCAGTCG | -0.113 ± 0.015
AGCCACCC | -0.17 ± 0.06
ACCGAAAT | -0.102 ± 0.1
CAACTAAG | -0.0731 ± 0.039
GCTGCGCC | -0.0003 ± 0.065
TTACGTAA | -0.125 ± 0.0026
AGCCCTTC | -0.207 ± 0.033
CAGCTGCA | -0.0417 ± 0.02
CAAGTCTC | 0.167 ± 0.046
AGCCGACT | -0.187 ± 0.025
TCTGGGCA | -0.114 ± 0.033
ACAAACAG | -0.00793 ± 0.042

Sequence | PBM E-score of 8-mer
GATAAGAA | 0.0672 ± 0.0061
TGAAGACA | 0.0696 ± 0.0097
CGCGCCGA | 0.157 ± 0.041
CCCGGCCA | -0.237 ± 0.019
CGAGCATC | -0.0427 ± 0.029
AGCCGTAC | -0.274 ± 0.019
AGAACGAA | -0.0336 ± 0.027
AAGATAAT | -0.162 ± 0.066
GCGGTCAA | -0.103 ± 0.051
CCGCGGTC | -0.173 ± 0.011
GCCCTAGC | -0.269 ± 0.04
CATATTTA | -0.0944 ± 0.096
TCACGTCA | 0.115 ± 0.019
TTTGCAAA | -0.08 ± 0.063
GTCTAGCA | 0.0552 ± 0.044
AGTGGGGC | 0.0519 ± 0.051
GAAGTGCA | 0.147 ± 0.021
TAAAGTGA | 0.152 ± 0.0019
ACGGTAAA | -0.1 ± 0.011
ACTCCAAG | -0.0768 ± 0.021
GAGTTGCC | 0.0808 ± 0.041
ACCCTTGA | -0.0396 ± 0.029
ACAATGCG | 0.222 ± 0.025
ACAGTGTA | 0.0565 ± 0.017
AACTGTCA | 0.248 ± 0.051

Sequence | PBM E-score of 8-mer
ACCTGCAG | 0.0801 ± 0.0056
AGTTGCGA | 0.3999 ± 0.00081
CATCTCGC | 0.138 ± 0.024
AGCTAGTC | 0.0361 ± 0.015
CCCTCGAG | -0.187 ± 0.011
CCTATGAG | -0.125 ± 0.036
AAGACGTC | -0.135 ± 0.13
AGATGACG | 0.125 ± 0.029
AGAGCGAC | 0.00812 ± 0.031
AAAAACGC | 0.0442 ± 0.085
ACTCTGTC | -0.0422 ± 0.0026
GCCACGAA | 0.00399 ± 0.009
ATACTTTC | -0.0159 ± 0.035
CTTGATAA | 0.0356 ± 0.11
GTCAGCAC | 0.273 ± 0.077
CGCTCGCA | 0.336 ± 0.028
AAAACAGA | -0.187 ± 0.057
ACCCCCAT | -0.079 ± 0.0034
ATATGTCC | -0.286 ± 0.032
CTTCCTAA | -0.0989 ± 0.16
CCGCACTA | 0.0434 ± 0.011
CCGAACCC | -0.361 ± 0.024
CGTGGGAG | -0.0578 ± 0.057
TAATCCAA | -0.0317 ± 0.01
CCCCAAAC | -0.1631 ± 0.00051

Sequence | PBM E-score of 8-mer
CCCTCTCA | 0.0515 ± 0.007
ACTCGAAG | 0.115 ± 0.014
CCCGAGTA | -0.128 ± 0.028
ACCGAGAG | -0.15 ± 0.039
AACGGACC | -0.115 ± 0.018
CCGAAGAG | -0.0935 ± 0.045
GGGCGTGA | 0.44 ± 0.015
GCCGCTTA | -0.0183 ± 0.017
TATACAAA | -0.164 ± 0.032
GTCGACAA | 0.275 ± 0.0098
CCAATGAG | -0.24 ± 0.018
AGCTGTCG | 0.263 ± 0.013
ACAAGTTC | 0.0763 ± 0.052
AATTACGC | -0.0182 ± 0.0037
CTGACGGC | 0.0221 ± 0.079
ATCACAGA | 0.102 ± 0.074
AGGCAAAA | -0.067 ± 0.046
AGCCAGAT | -0.172 ± 0.03
GGAACTAA | -0.00749 ± 0.0016
